Experimental findings from PubChem BioAssay AID488969 (Vanderbilt High Throughput Screening Facility, 2010) are described below.

The full ranking holds about 110,000 compounds; the median of “z-score” is about -0.1, and the highest 2% start at about 2. The list shows a part of the results.

The test deals with Metabotropic glutamate receptor 8 (Rattus norvegicus) (UniProt P70579). Nature of the test: rat mGluR8 modulators via GIRK flux, primary screen, cell-based, thallium flux, HTS (AID 488969). To be noted: HEK293 rat mGluR8, GIRK (G protein-gated inwardly rectifying potassium channel) thallium flux, FluoZin2; at 10 µM; stronger effect = higher value; submaximal glutamate (EC20) added with thallium.
Sequence of UniProt P70579 (P70579 whole entry, looked up): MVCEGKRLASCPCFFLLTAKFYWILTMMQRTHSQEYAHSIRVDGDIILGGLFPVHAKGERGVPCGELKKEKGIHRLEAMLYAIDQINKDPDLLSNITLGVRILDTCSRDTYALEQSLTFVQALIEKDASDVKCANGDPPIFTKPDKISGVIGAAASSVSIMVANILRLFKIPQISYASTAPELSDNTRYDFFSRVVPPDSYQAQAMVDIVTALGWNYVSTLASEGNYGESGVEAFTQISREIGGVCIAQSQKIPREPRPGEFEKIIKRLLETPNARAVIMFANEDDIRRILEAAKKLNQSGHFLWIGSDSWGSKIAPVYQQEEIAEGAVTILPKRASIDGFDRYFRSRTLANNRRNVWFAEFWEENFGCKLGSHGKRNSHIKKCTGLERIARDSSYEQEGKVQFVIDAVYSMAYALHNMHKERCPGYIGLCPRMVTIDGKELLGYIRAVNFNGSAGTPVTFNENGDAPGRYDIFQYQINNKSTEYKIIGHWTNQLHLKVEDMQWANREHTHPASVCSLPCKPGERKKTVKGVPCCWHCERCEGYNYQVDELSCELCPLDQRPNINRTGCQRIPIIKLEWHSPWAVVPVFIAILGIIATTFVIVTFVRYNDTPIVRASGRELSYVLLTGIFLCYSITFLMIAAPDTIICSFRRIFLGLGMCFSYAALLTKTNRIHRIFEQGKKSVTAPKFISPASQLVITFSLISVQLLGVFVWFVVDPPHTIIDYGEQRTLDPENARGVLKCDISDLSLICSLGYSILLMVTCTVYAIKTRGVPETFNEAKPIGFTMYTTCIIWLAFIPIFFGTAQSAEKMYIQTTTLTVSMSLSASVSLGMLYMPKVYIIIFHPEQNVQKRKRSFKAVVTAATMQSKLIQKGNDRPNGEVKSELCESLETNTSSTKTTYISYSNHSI
As for `C=CCNC(=S)NC1CC(C)(C)NC(C)(C)C1`, the z-score was 0.609.

Compound `COc1ccc(C2NC(=O)NC(O)(C(F)(F)F)C2C(=O)c2ccccc2)cc1OC` (stereo not given) gave a z-score of -0.119.

With `CC(O)(CS(=O)(=O)Cc1cccc(C(F)(F)F)c1)C(=O)Nc1cccc(C(F)(F)F)c1` (stereo not given), the z-score is -0.0329.

For the compound `Cc1cc(Cl)c(S(=O)(=O)NC(C)C)cc1OCC(N)=O`, the z-score is -0.15.

`COc1ccccc1N1CCN(CC(O)c2ccc3cc[nH]c3c2)CC1` (stereo not given) came in with a z-score of -1.83.

`O=C(Oc1ccc2[nH]cc(CCN3C(=O)c4ccccc4C3=O)c2c1)c1ccco1` had a z-score of 0.567.

`CC(C)(C)OC(=O)N1Cc2ccccc2C[C@H]1C(=O)O` returned a z-score of -0.202.

Take `CCc1ccccc1NC1=NCC(=O)N1Cc1ccc2c(c1)OCO2`: the z-score is -0.665.

Turning to `CC(O)c1cc2c(cc1NC(=O)c1cnn3c1NC(c1ccco1)CC3C(F)(F)F)OCO2` (stereo not given), the z-score is 0.0106.

As to `CN(c1ccc(OCC(=O)Nc2nc(-c3ccccc3)cs2)cc1)S(=O)(=O)c1ccc(F)cc1`, the z-score is -0.22.

Regarding `CCOC(=O)N1CCC(N(CCN(C)C)C(=S)Nc2cc(C)ccc2C)CC1`, the z-score stood at 0.0331.

As for `COc1ccccc1Cn1c(/C=C/c2ccccc2)nc2ccccc21`, the z-score was -0.184.

In the case of `Cc1cc2c(c(=O)n1Cc1cccnc1)C(c1cccs1)C(C#N)=C(N)O2` (stereo not given), the z-score is -0.39.

As to `CC1=C(C(=O)OC(C)C)C(c2cccs2)N2C(=O)CCSC2=N1` (stereo not given), the z-score was -1.69.

Turning to `OCCN1CCOCCN(CCO)CCN(CCO)CC1`, the z-score was -0.593.

As to `COc1cccc(-c2nnc(SCC(=O)Nc3cc(C)on3)o2)c1`, the z-score is -1.2.

`Cc1ccc(NC(=O)/C(C#N)=C/c2ccc(C)s2)c(C)c1` returned a z-score of -0.194.

`Fc1ccc(N/N=C/c2ccncc2)c(F)c1` showed a z-score of -0.159.

For the compound `Cc1ccc(-n2c(Cc3cccn3C)nnc2SCC(N)=O)cc1`, the z-score turned out to be 0.107.

`O=C(CCCSc1nnc(-c2cccs2)n1CC1CCCO1)c1ccccc1` (stereo not given): the z-score was -0.131.

On to `CCCn1c(NCc2ccccn2)nc2ccccc21`, for which the z-score is -0.233.

For `CN=C1C([N+](=O)[O-])=CC=C2C1=NC1(CCCCC1)N2O`, the z-score came to 0.118.

The compound `Cc1cc(-c2ccc(/C=N/n3cnnc3)o2)c([N+](=O)[O-])cc1C` showed a z-score of -2.76.

Consider `CCOC(=O)NS(=O)(=O)c1ccc(CCNC(=O)c2cc(C)on2)cc1`, for which the z-score was -0.044.

Take `CCOc1ccc(/C=N/NC(N)=S)cc1`: the z-score is -0.00516.

As to `CC(C)n1c(SCCCc2ccccc2)nc2c1c(=O)[nH]c(=O)n2C`, the z-score was -0.172.

In turn, `CCCSc1cc(=O)n(-c2ccccc2)nc1C(=O)OCC` registered a z-score of -0.0657.

`O=C(NCc1cccs1)c1cccc(N2CCCC2=O)c1` came in with a z-score of 0.00525.

`O=C(NCC1CCCO1)c1ccc2ccccc2n1` (stereo not given) showed a z-score of 0.0317.

`Cc1nc2ccccc2nc1OCc1ccccc1` had a z-score of -0.0133.

As for `O=C(c1cc2ccccc2oc1=O)N(Cc1cccs1)Cc1cccs1`, the z-score was -0.503.

Consider `Cc1ccc2nsnc2c1S(=O)(=O)N(Cc1ccco1)Cc1cc2ccc(C)c(C)c2[nH]c1=O`, for which the z-score worked out at 0.0235.

As for `CCN(CC)C(=O)N1c2ccccc2CC(N(CC)CC)c2ccccc21` (stereo not given), the z-score turned out to be 0.421.

As to `COc1ccc(Cc2nc(-c3ccc(NC(=O)c4cccnc4)cc3)no2)cc1`, the z-score was -0.000464.

`O=C(C1CCN(S(=O)(=O)c2cccc3cccnc23)CC1)N1CCc2ccccc21`: the z-score is -0.168.

As to `COc1ccccc1NC(=S)N1CCN(Cc2ccccc2)CC1`, the z-score is -0.233.

`CCN(CC)C(=O)Oc1ccc(Cl)c2ccccc12` came in with a z-score of -0.211.

Turning to `COc1ccnc(Oc2ccccc2)c1C(=O)N/C=N/OCc1ccc(F)cc1Cl`, the z-score is -0.167.

`Cc1ccc(Cn2ncc3c(N4CCN(Cc5ccc(Cl)cc5)CC4)ncnc32)cc1` yielded a z-score of -1.19.

Compound `Cc1ccc(C)c(/C=N/NC(=S)NCCc2ccccc2)c1` showed a z-score of 1.17.

`Cc1ccc2c(c1)C(C)(C)[C@]1(C)NC(=O)CCN21` registered a z-score of -0.00344.

As for `COc1ccc(NC(=O)C2CCN(c3nnnn3-c3ccccc3)CC2)cc1`, the z-score came out at 0.337.

The compound `O=[N+]([O-])c1cc(-c2ccc(/C=N/c3nc4ccccn4c3-c3ccco3)o2)ccc1Cl` had a z-score of 0.0934.

As to `Cc1nc2ncnn2c(C)c1CCC(=O)NC(C)CCc1ccco1` (stereo not given), the z-score was determined as 0.104.

In turn, `Cc1ccc(OCC(=O)N2CCN(C(=O)c3cccs3)CC2)cc1` returned a z-score of -0.388.

Compound `O=C1CCC/C(=N\NC(=O)c2ccc(COc3cccc4cccnc34)cc2)C1` displayed a z-score of -0.787.

`CCOc1ccc(C(=O)OC2CCN(C)CC2)cc1` came in with a z-score of 0.105.

As for `Cc1cccc(C(=O)NC2CCN(C(=S)NCc3ccco3)CC2)c1`, the z-score is -0.0881.

Compound `O=C(CNS(=O)(=O)c1ccc(Br)s1)N1CCN(C(=O)c2ccco2)CC1` returned a z-score of 0.666.

`CSc1ccc(/C=N/NC(=O)CN2CCN(Cc3ccc(Cl)cc3)CC2)cc1`: the z-score is -0.189.

Consider `O=C(CSc1nc(-c2ccccc2)c(-c2ccccc2)o1)Nc1nnc(-c2ccccc2)s1`, for which the z-score came out at 0.0761.

Compound `Cc1cccc(NC(=O)COC(=O)c2cccc3c2C(=O)c2ccccc2C3=O)c1C` returned a z-score of -0.309.

In turn, `Nc1c(C(=O)Nc2ccc(S(=O)(=O)N3CCCC3)cc2)sc2nc3ccc(OC(F)(F)F)cc3cc12` registered a z-score of -0.057.

For `O=C(COC(=O)C(Cc1ccccc1)NC(=O)c1ccco1)NC1CC1` (stereo not given), the z-score was -0.319.

Regarding `Nc1nonc1NC(=O)NN=C1CCCCC1`, the z-score turned out to be 0.00773.

In turn, `Cc1ccc(N/N=C(\Cc2nc3ccccc3[nH]2)c2ccccc2)cc1` gave a z-score of -0.101.

`COC(=O)C1=C(C)NC(=O)CC1c1ccc(F)c(Br)c1` (stereo not given) registered a z-score of -0.419.

On to `O=C(Nc1cc(C(F)(F)F)ccc1-n1cnc2ccccc21)c1ccccc1`, for which the z-score was 0.55.

Consider `CCCCS(=O)(=O)NC1=NCN(CCO)CN1`, for which the z-score is -0.0897.

As for `CN(C1CCCCC1)S(=O)(=O)c1ccc(NC(=O)CCC(=O)O)cc1`, the z-score is -0.335.

`Cc1cc(C)nc(NS(=O)(=O)c2ccc(Br)cc2)n1` registered a z-score of -0.00295.

`CCCS(=O)(=O)N1CCC(C(=O)N2CCc3ccccc3C2)CC1` had a z-score of 0.195.

As to `CCOC(=O)Cc1csc(NC(=O)CCCN2C(=O)c3ccccc3C2=O)n1`, the z-score was -0.155.

The compound `CCS(=O)(=O)N1CCN(C(=O)c2cccs2)CC1` showed a z-score of -0.0769.

As to `O=C(CCN1CCN(CCO)CC1)Nc1ccc(OCc2ccccc2)cc1`, the z-score came out at 0.401.

`O=C(CNC(=O)c1cccc(F)c1)N/N=C/c1ccc(O)c([N+](=O)[O-])c1` showed a z-score of 0.115.

Take `CCCCCn1c(C(Cc2ccccc2)NC(=O)COC)nc2ccccc21` (stereo not given): the z-score is -0.00692.

Compound `C/C=C/CSc1nc2c(c(=O)[nH]c(=O)n2C)n1Cc1ccc(C)cc1` displayed a z-score of -0.177.

In the case of `CCOc1cc(C(=O)OCC(=O)c2c(C)[nH]c3ccccc23)ccc1OCC(=O)N1CCOCC1`, the z-score was -0.335.

`CCOC(=O)c1nnn(-c2nonc2-n2cccc2)c1CCl` returned a z-score of -0.253.
